Measured values published in the supplement of paper PMC12217912.
Some of the results follow. The full chains were built here from the parent and the listed change. Inactive controls read about 0.05.

B1: TEV protease; numbered along this chain (parent)
chain: MGESLFKGPRDYNPISSSICHLTNESDGHTTSLYGIGFGPFIITNKHLFRRNNGTLVVQSLHGVFKVKDTTTLQQHLVDGRDMIIIRMPKDFPPFPQKLKFREPQREERICLVTTNFQTKSMSSMVSDTSCTFPSGDGIFWKHWIQTKDGQCGSPLVSTRDGFIVGIHSASNFTNTNNYFTSVPKNFMELLTNQEAQQWVSGWRLNADSVLWGGHKVFMVKPEEPFQPVKEATQL

Variants of: B1
Experiment: raw area under fraction-flipped curve 0-4 h after induction (AUC4h, not background-subtracted), DNA-recorder readout of cleavage of the substrate (dimensionless); higher = more cleavage of the substrate by the protease variant
Details: temperature: 34 °C; time window: 0-4 h after rhamnose induction
Method: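 In vivo DNA recorder in E. coli TOP10(DE3) ΔrhaA at 34 °C. Each TEVp single-site mutant (parent TEVp 0) is paired with a single-site variant of the 7-mer TEVs (canonical ENLYFQ|S). The substrate sits between flexible linkers in a Bxb1-sfGFP-TEVs-SsrA fusion, so cleavage stabilises Bxb1 and speeds flipping of a recombination array, read by NGS. The value is the raw area under the fraction-flipped curve over 0-4 h after rhamnose induction (AUC4h), with ≥20 reads per time point. It is not background-subtracted; inactive controls average about 0.047.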
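Note: Bxb1 expression induced with 0.2% (w/v) L-rhamnose at OD600 near 0.5, cultures sampled hourly, flipped fraction per protease–substrate barcode pair counted by paired-end Illumina sequencing.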

Variant | area with substrate EALYFQS | area with substrate ECLYFQS | area with substrate EDLYFQS | area with substrate EFLYFQS | area with substrate EILYFQS | area with substrate ESLYFQS | area with substrate EVLYFQS | area with substrate EWLYFQS | area with substrate EELYFQS | area with substrate EGLYFQS | area with substrate EHLYFQS | area with substrate EKLYFQS | area with substrate ELLYFQS | area with substrate EMLYFQS | area with substrate EPLYFQS | area with substrate EQLYFQS | area with substrate ERLYFQS | area with substrate ETLYFQS | area with substrate EYLYFQS
L99D | 0.123 | 0.0574 | 0.101 | 0.0951 | 0.0668 | 0.07 | 0.0619 | 0.0461 |  |  |  |  |  |  |  |  |  |  | 
R102H | 0.0505 | 0.0662 | 0.0652 |  |  | 0.0615 | 0.0599 | 0.063 | 0.0664 | 0.0561 | 0.0561 | 0.0559 | 0.0531 | 0.0509 | 0.0558 | 0.062 | 0.0492 | 0.0594 | 0.0459
P104G | 0.0524 | 0.0596 | 0.0845 |  | 0.0476 | 0.0552 | 0.0467 | 0.0507 | 0.0551 | 0.0517 | 0.0486 | 0.0469 | 0.0609 |  | 0.0399 | 0.0482 |  | 0.057 | 0.0552
Q105D | 0.115 | 0.0998 | 0.125 | 0.123 | 0.0964 | 0.106 | 0.0974 | 0.0933 | 0.128 | 0.0915 |  | 0.135 | 0.0953 | 0.121 | 0.12 | 0.12 | 0.125 | 0.178 | 
Q105R | 0.114 | 0.141 | 0.102 |  | 0.0913 | 0.1 | 0.0802 | 0.104 | 0.114 |  | 0.124 | 0.142 |  | 0.113 |  | 0.114 | 0.128 | 0.118 | 0.174
R106A | 0.102 | 0.114 | 0.179 | 0.0906 |  | 0.109 | 0.113 | 0.0827 |  | 0.107 | 0.127 |  | 0.121 |  | 0.093 |  | 0.129 | 0.0909 | 0.0772
E107Y | 0.137 | 0.12 | 0.129 |  | 0.0865 | 0.0955 |  |  | 0.13 | 0.088 | 0.101 | 0.121 | 0.0899 |  | 0.14 | 0.137 |  |  | 0.124
E108A | 0.057 | 0.0672 | 0.0688 | 0.0555 |  | 0.0633 | 0.0561 |  | 0.0585 | 0.0627 | 0.0633 | 0.0445 | 0.0659 | 0.0437 | 0.0614 | 0.0707 | 0.0698 | 0.0737 | 0.0638
R109G | 0.122 | 0.114 | 0.105 |  | 0.104 | 0.092 |  | 0.0729 | 0.119 | 0.0849 | 0.0858 | 0.106 | 0.0752 | 0.127 | 0.141 |  |  | 0.118 | 0.0912
R109I | 0.0964 | 0.0954 | 0.0965 |  | 0.0856 | 0.0886 | 0.076 | 0.0725 | 0.111 | 0.0836 | 0.114 | 0.0861 | 0.0987 | 0.0982 | 0.109 | 0.0813 | 0.0796 |  | 
R109Q | 0.0986 | 0.121 | 0.122 |  | 0.05 |  | 0.0971 | 0.0898 | 0.122 | 0.112 |  |  | 0.097 | 0.123 | 0.0922 |  |  | 0.101 | 0.0823
R109W | 0.109 | 0.0911 | 0.113 | 0.0921 | 0.0967 |  | 0.0551 | 0.0755 | 0.135 |  |  |  | 0.087 | 0.072 | 0.112 | 0.11 | 0.0786 |  | 
I110D | 0.0501 | 0.0473 | 0.0484 | 0.0497 | 0.0528 | 0.0411 | 0.0082 | 0.0749 | 0.0253 | 0.0505 |  | 0.0557 | 0.0583 |  |  | 0.0609 | 0.0587 | 0.0522 | 
I110G | 0.0553 | 0.0732 | 0.057 | 0.0684 | 0.05 | 0.0485 |  |  |  | 0.0454 |  |  |  | 0.0402 |  | 0.0579 | 0.0563 | 0.0679 | 0.0585
I110T | 0.0844 | 0.0351 | 0.095 | 0.104 | 0.0657 | 0.0708 | 0.066 |  | 0.0935 | 0.0646 | 0.0718 |  | 0.0621 | 0.0774 | 0.102 |  | 0.0821 | 0.0884 | 0.0685
C111M | 0.11 | 0.107 | 0.0964 |  | 0.0843 | 0.101 | 0.0885 | 0.0981 | 0.109 |  |  | 0.112 | 0.0811 |  | 0.102 |  | 0.0935 |  | 0.101
C111S | 0.126 | 0.0972 | 0.15 |  | 0.0824 | 0.107 | 0.104 | 0.0993 | 0.124 |  | 0.119 | 0.0935 | 0.0878 | 0.0922 | 0.11 | 0.123 | 0.111 | 0.126 | 0.0671
V113G | 0.076 | 0.0842 | 0.0819 | 0.0492 | 0.0439 |  |  |  | 0.0837 | 0.0288 |  | 0.0834 |  |  | 0.0655 | 0.086 | 0.104 |  | 
T114Y | 0.114 | 0.0946 | 0.122 | 0.136 | 0.0852 | 0.0962 | 0.101 |  |  |  | 0.0935 |  |  |  | 0.0983 | 0.117 |  | 0.109 | 0.0867
N116S | 0.113 | 0.163 | 0.142 |  | 0.104 | 0.116 | 0.0975 | 0.109 | 0.149 |  |  |  |  |  |  |  | 0.0901 |  | 
S121H | 0.115 | 0.114 | 0.129 |  | 0.116 | 0.12 |  | 0.0863 |  | 0.117 | 0.103 | 0.126 | 0.132 | 0.118 | 0.115 | 0.118 | 0.113 | 0.12 | 0.119
S121M | 0.117 | 0.102 | 0.117 | 0.112 | 0.0776 | 0.109 | 0.088 | 0.095 | 0.141 | 0.0736 | 0.0899 |  | 0.0855 |  | 0.0991 | 0.119 |  | 0.0153 | 0.102
S121W | 0.139 | 0.0993 | 0.156 |  | 0.0922 | 0.115 | 0.108 | 0.0994 | 0.125 | 0.0878 | 0.0988 | 0.134 | 0.0965 | 0.133 | 0.113 | 0.13 | 0.0985 | 0.12 | 
S123D | 0.109 | 0.109 | 0.129 |  | 0.0964 | 0.1 | 0.112 | 0.0952 | 0.121 |  | 0.123 | 0.104 | 0.0867 | 0.117 | 0.157 | 0.11 |  |  | 0.0857
